# Data from PubChem BioAssay AID686979 (National Center for Advancing Translational Sciences (NCATS), 2013).
# Screen size: about 420,000 compounds; about 50,000 (12%) were called active. The shares of active, inactive and inconclusive entries below differ from those in the screen. Calls follow the shape of the dose curve; as a rule, active = well fitted inhibition curve with a large enough effect; inconclusive = small, poorly fitted or top-dose-only effect; inactive = flat fitted curve, though single readings scatter. No potency is given beside an inconclusive call; the fits are too rough.
# Test: qHTS for Inhibitors of human tyrosyl-DNA phosphodiesterase 1 (TDP1): qHTS in cells in presence of CPT; also: nearly all actives have a fitted effect of over 55% in size
# Settings: chicken DT40 Tdp1-/-;hTDP1 cells + 20 nM CPT, ATP luminescence, 48 h; activity change, negative = growth inhibition: at 46.2 µM (top of the series) unless noted
# How it was run: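 Chicken DT40 Tdp1-/- cells stably complemented with human TDP1 were seeded at 400 cells/well in medium containing 20 nM camptothecin, exposed to pin-transferred compounds, and grown at 37 °C for at least 48 hr. Viability was read as ATP luminescence.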
# % is scaled to controls: 0 for no effect and ±100 for the full control effect; potency is read from the fitted curve at half-maximal effect; tags tell the direction and shape of the fitted curve.
SMILES,"activity change, negative = growth inhibition",Potency
O=C(CCc1ccccc1)N1CCN(c2ccccn2)CC1,inactive: -24.4%,
Cc1ccc(C)c2c1cc(C)c1nnc(SCC(=O)NCc3ccc4c(c3)OCO4)n12,,"inconclusive [inhibitor, single point]"
O=C(CCCN1C(=O)c2cccc3cccc(c23)C1=O)N1CCN(c2ccccc2O)CC1,,"inconclusive [inhibitor, single point]"
COc1cccc(N2CCN(c3ccc4nnc(CCC(=O)Nc5ccc(OC)c(OC)c5)n4n3)CC2)c1,,"inconclusive [inhibitor, partial curve]"
COc1ccccc1C(=O)NCCC(=O)NNC(=O)c1ccccc1O,,"inconclusive [inhibitor, single point]"
N#Cc1ccccc1CSc1nnc2ccc3ccccc3n12,inactive: -12.4%,
Cc1noc(C)c1-c1cc(N(C)Cc2ccco2)ncn1,,"inconclusive [inhibitor, partial curve]"
Cc1cccc(Nc2nnc(SCC3CCCCO3)s2)c1C (centres undefined),inactive: -26.9%,
CC(=O)N1CCN(c2ccc(S(=O)(=O)NCCN(C(C)C)C(C)C)cc2[N+](=O)[O-])CC1,inactive: 10.5%,
Cc1ccc(O)c(C(=O)C=Cc2ccccc2)c1,,"inconclusive [inhibitor, single point]"
COc1ccc(S(=O)(=O)N2CCCCC2)cc1NC(=O)CCNC(=O)c1ccc(Br)cc1,inconclusive: -30.1% [inhibitor],
Cc1onc(-c2c(F)cccc2Cl)c1C(=O)Nc1cccc(S(=O)(=O)NCc2ccco2)c1,,"inconclusive [inhibitor, single point]"
CC(C)N1CCC(C)(C(=O)Nc2ccccc2Oc2ccccc2)C1 (centres undefined),inactive: -11.7%,
COc1ccc(C(=O)Nc2ccc(N3CCOCC3)cc2)cc1S(=O)(=O)NC1CCCC1,inactive: -0.684%,
O=C(Nc1nnc(Cc2ccccc2)s1)Nc1ccccc1F,,"inconclusive [inhibitor, single point]"
CCc1ccc(NC(=O)N(CCN2CCOCC2)Cc2ccc3c(c2)CCCN3CC)cc1,,"inconclusive [inhibitor, partial curve]"
Cc1ccc(/C=C/C(=O)Nc2ccc(Oc3ccccc3)cc2)o1,,"inconclusive [inhibitor, single point]"
CCc1nc2c(OCC3COc4ccccc4O3)cccn2c1N(C)C(=O)c1cccs1 (centres undefined),,"inconclusive [inhibitor, single point]"
O=C(CN1CCc2ccccc2C1)Nc1ccccc1F,inactive: -3.86%,
Cc1nc2ccccn2c1-c1csc(NCc2ccco2)n1,,active: 13 µM
COc1cccc(CN(C)C(=O)CCN=C2NS(=O)(=O)c3ccccc32)c1OC,inactive: 9.18%,
O=S(=O)(NCc1ccncc1)c1ccc(Br)s1,,active: 1.84 µM

SMILES,"activity change, negative = growth inhibition",Potency
CCO[C@@H]1OC(C(=O)Nc2ccccc2)=C[C@H](C2CC2)[C@H]1CCCO,,"inconclusive [inhibitor, single point]"
Cc1ccc(CNC(=O)C2CCCN(c3nc4ccsc4c(=O)s3)C2)cc1 (centres undefined),,"inconclusive [inhibitor, partial curve, poor fit]"
CCCCOc1ccc(CONS(=O)(=O)c2ccc(NC(C)=O)cc2)cc1Cl,,active: 13 µM
O=C1[C@@H](Oc2ccccc2)[C@@H](c2ccncc2)N1c1ccncc1,inactive: -23.7%,
COc1ccc(CNCC(O)COc2ccc(C)cc2[N+](=O)[O-])cc1 (centres undefined),,"inconclusive [inhibitor, single point]"
CN1OC[C@@H]2CN[C@H](c3cccc(-c4ccccc4)c3)C[C@@H]21,,"inconclusive [inhibitor, single point]"
Cc1nn2c(CN(C(=O)COc3ccccc3)c3ccccc3)nnc2c2ccccc12,,"inconclusive [inhibitor, single point]"
NC(=O)[C@@H]1CC2(CC(c3cccc(NC(=O)COc4ccc(Cl)cc4)c3)=NO2)CN1C(=O)COc1ccc(Cl)cc1 (some centres undefined),,"inconclusive [inhibitor, single point]"
O=C(CN(c1ccc(Cl)c(C(F)(F)F)c1)S(=O)(=O)c1ccccc1)Nc1cccnc1,,"inconclusive [inhibitor, single point]"
CCc1ccccc1NC(=O)CSc1nnc(-c2ccccc2)c(-c2ccccc2)n1,,"inconclusive [inhibitor, single point]"
Cc1c(C(=O)NCCSCc2c(F)cccc2Cl)cnn1-c1ccc(F)cc1,,"inconclusive [inhibitor, single point]"
O=Cc1ccc2cccnc2n1,,"inconclusive [inhibitor, single point]"
Cc1[nH]cnc1C(=O)N/N=C/c1ccc([N+](=O)[O-])s1,,active: 11.6 µM
O=C(NCC(=O)N1CC=C(c2ccccc2)CC1)c1ccccc1Br,,"inconclusive [inhibitor, partial curve]"
COc1cnn(-c2ccc(C)cc2)c(=O)c1Cl,inactive: -8.25%,
O=C(Nc1ccc([N+](=O)[O-])cc1)c1cn(-c2ccccc2)nc1-c1cc2ccccc2o1,,active: 8.2 µM
COc1cc(OC)cc(-c2cc3nc(C)c(CCC(=O)Nc4ccccc4OC)c(C)n3n2)c1,,"inconclusive [inhibitor, single point]"
Cc1ccc(-c2csc(NC(=O)CCNC(=O)c3ccc(Cl)cc3)n2)cc1,,"inconclusive [inhibitor, partial curve]"
CCC1Oc2nc(SC)nnc2-c2ccccc2N1C(=O)c1ccccc1 (centres undefined),,"inconclusive [inhibitor, single point]"
CC1(C)Cc2c(cnn2-c2ccccc2)-c2c1c1ccccc1n2CC(O)CBr (centres undefined),,"inconclusive [inhibitor, single point]"
Cc1nc(C)c(-c2nnc(-c3ccc(C(C)(C)C)cc3)o2)cc1C(=O)NN,,"inconclusive [inhibitor, single point]"
CCOC(=O)c1ccc(N2CN(C3CCCCC3)CNC2=S)cc1,,"inconclusive [inhibitor, single point]"
